± gives the standard error. Variants at the floor of the assay are shown more often than the library holds them.

Experimental findings from the supplement of paper PMC7125110 are described below.

First the molecules themselves.
B1: glmS ribozyme (parent)
chain: AUAAAAGCGCCAGAACUACAGAAAUGUAGUUGACGAGGAGGAGGUUUAUCGAAUUUUCGGCGGAUGCCUCCAAA

Common to all, as to conditions: with glucosamine-6-phosphate
The variants in data set [1] derive from B1. Kind of data set: self-cleavage kobs at 40 uM GlcN6P; higher = faster cleavage; RNA array. The method, boiled down:
(§1)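 Barcoded glmS ribozyme variants on sequenced MiSeq chips were transcribed in situ by E. coli RNA polymerase and tracked through a hybridised Cy3 probe at 37 °C. Glucosamine-6-phosphate (40 μM to 10 mM) in HEPES/KCl/Mg(OAc)2 buffer was flowed in, and tiles were imaged over ~14 h. Signals were normalised to baseline and to non-cleaving reference variants; per-tile medians were fit to one- or two-exponential decays to give kobs. kcat and KM came from weighted Michaelis–Menten fits across concentrations.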

The variants in data set [2] derive from B1. Briefly: self-cleavage kobs at 640 uM GlcN6P; higher = faster cleavage; RNA array. The method, boiled down:
as §1

Variants of B1 are the subject of data set [3]. Kind of data set: self-cleavage kobs at 160 uM GlcN6P; higher = faster cleavage; RNA array. The method, boiled down:
as §1

Variants of B1 are the subject of data set [4]. Kind of data set: self-cleavage kobs at 10000 uM GlcN6P; higher = faster cleavage; RNA array. The method, boiled down: as §1
In data set [5] the parent is B1. Kind of data set: self-cleavage kobs at 2500 uM GlcN6P; higher = faster cleavage; RNA array. Put shortly:
as §1

For the variant C16A G66U, the “self-cleavage kobs at 40 uM GlcN6P” value with glucosamine-6-phosphate [1] was less than 1e-05 s⁻¹.
In the case of A12U A53G, in the data set with glucosamine-6-phosphate [1], the “self-cleavage kobs at 40 uM GlcN6P” value amounted to 0.00255 ± 0.00025 s⁻¹. Also, the “self-cleavage kobs at 640 uM GlcN6P” value in the data set with glucosamine-6-phosphate [2] was determined as 0.0163 ± 0.0025 s⁻¹. In addition, the “self-cleavage kobs at 160 uM GlcN6P” value with glucosamine-6-phosphate [3] turned out to be 0.00496 ± 0.00086 s⁻¹. The “self-cleavage kobs at 10000 uM GlcN6P” value in the data set with glucosamine-6-phosphate [4] worked out at 0.125 ± 0.023 s⁻¹.
Regarding A12U U30A C70U, the “self-cleavage kobs at 40 uM GlcN6P” value in the data set with glucosamine-6-phosphate [1] turned out to be 0.000748 ± 0.00013 s⁻¹. In addition, in the data set with glucosamine-6-phosphate [4], the “self-cleavage kobs at 10000 uM GlcN6P” value worked out at 0.0461 ± 0.017 s⁻¹.
The matching figures for G29A U30C A39U A42G A48G A52U G60U: less than 1e-05 s⁻¹ and less than 1e-05 s⁻¹.
On to C16U G41A U56C, for which the “self-cleavage kobs at 40 uM GlcN6P” value in the data set with glucosamine-6-phosphate [1] is less than 1e-05 s⁻¹.
With C16A G37U G43U C50G, the “self-cleavage kobs at 40 uM GlcN6P” value with glucosamine-6-phosphate [1] is less than 1e-05 s⁻¹. Moreover, the “self-cleavage kobs at 10000 uM GlcN6P” value in the data set with glucosamine-6-phosphate [4] is less than 1e-05 s⁻¹.
Consider C11U A42C G62C, for which the “self-cleavage kobs at 40 uM GlcN6P” value with glucosamine-6-phosphate [1] was less than 1e-05 s⁻¹. Also, in the data set with glucosamine-6-phosphate [2], the “self-cleavage kobs at 640 uM GlcN6P” value is less than 1e-05 s⁻¹. Besides, in the data set with glucosamine-6-phosphate [4], the “self-cleavage kobs at 10000 uM GlcN6P” value is less than 1e-05 s⁻¹.
Turning to A14C A33U, the “self-cleavage kobs at 40 uM GlcN6P” value in the data set with glucosamine-6-phosphate [1] is less than 1e-05 s⁻¹.
On to A12G A14G U30A U46C U49C U57C, for which the “self-cleavage kobs at 40 uM GlcN6P” value in the data set with glucosamine-6-phosphate [1] was less than 1e-05 s⁻¹. The “self-cleavage kobs at 2500 uM GlcN6P” value with glucosamine-6-phosphate [5] is less than 1e-05 s⁻¹. Moreover, the “self-cleavage kobs at 10000 uM GlcN6P” value in the data set with glucosamine-6-phosphate [4] is less than 1e-05 s⁻¹.
Turning to A15C G60C, in the data set with glucosamine-6-phosphate [1], the “self-cleavage kobs at 40 uM GlcN6P” value was less than 1e-05 s⁻¹. Further, the “self-cleavage kobs at 640 uM GlcN6P” value with glucosamine-6-phosphate [2] was less than 1e-05 s⁻¹. The “self-cleavage kobs at 2500 uM GlcN6P” value with glucosamine-6-phosphate [5] was less than 1e-05 s⁻¹. The “self-cleavage kobs at 10000 uM GlcN6P” value with glucosamine-6-phosphate [4] is less than 1e-05 s⁻¹.
On to A12C C16G A36U, for which the “self-cleavage kobs at 40 uM GlcN6P” value with glucosamine-6-phosphate [1] is less than 1e-05 s⁻¹.
As to A12U G32C A39G U49G C50A, in the data set with glucosamine-6-phosphate [1], the “self-cleavage kobs at 40 uM GlcN6P” value is less than 1e-05 s⁻¹. Moreover, the “self-cleavage kobs at 10000 uM GlcN6P” value with glucosamine-6-phosphate [4] is less than 1e-05 s⁻¹.
With C11U G43A, in the data set with glucosamine-6-phosphate [1], the “self-cleavage kobs at 40 uM GlcN6P” value was less than 1e-05 s⁻¹. For the same variant, the “self-cleavage kobs at 640 uM GlcN6P” value in the data set with glucosamine-6-phosphate [2] is less than 1e-05 s⁻¹. Besides, in the data set with glucosamine-6-phosphate [3], the “self-cleavage kobs at 160 uM GlcN6P” value was less than 1e-05 s⁻¹. Also, in the data set with glucosamine-6-phosphate [5], the “self-cleavage kobs at 2500 uM GlcN6P” value was less than 1e-05 s⁻¹.
For the variant C16A A33G U45G, the “self-cleavage kobs at 40 uM GlcN6P” value in the data set with glucosamine-6-phosphate [1] is less than 1e-05 s⁻¹. Moreover, the “self-cleavage kobs at 10000 uM GlcN6P” value with glucosamine-6-phosphate [4] was less than 1e-05 s⁻¹.
On to A14C C16G G35A, for which the “self-cleavage kobs at 40 uM GlcN6P” value with glucosamine-6-phosphate [1] was less than 1e-05 s⁻¹.
In the case of C16G G44A, the “self-cleavage kobs at 40 uM GlcN6P” value in the data set with glucosamine-6-phosphate [1] was less than 1e-05 s⁻¹. The “self-cleavage kobs at 160 uM GlcN6P” value with glucosamine-6-phosphate [3] was less than 1e-05 s⁻¹.
C16U: the “self-cleavage kobs at 40 uM GlcN6P” value with glucosamine-6-phosphate [1] is 0.000969 ± 1.7e-05 s⁻¹. For the same variant, the “self-cleavage kobs at 640 uM GlcN6P” value with glucosamine-6-phosphate [2] turned out to be 0.0121 ± 0.00055 s⁻¹. The “self-cleavage kobs at 160 uM GlcN6P” value with glucosamine-6-phosphate [3] stood at 0.00308 ± 0.0002 s⁻¹. Besides, the “self-cleavage kobs at 2500 uM GlcN6P” value with glucosamine-6-phosphate [5] turned out to be 0.0272 ± 0.0015 s⁻¹. In the data set with glucosamine-6-phosphate [4], the “self-cleavage kobs at 10000 uM GlcN6P” value worked out at 0.0458 ± 0.0022 s⁻¹.
Regarding A15G G51U, in the data set with glucosamine-6-phosphate [1], the “self-cleavage kobs at 40 uM GlcN6P” value was less than 1e-05 s⁻¹. Moreover, in the data set with glucosamine-6-phosphate [2], the “self-cleavage kobs at 640 uM GlcN6P” value was less than 1e-05 s⁻¹. The “self-cleavage kobs at 160 uM GlcN6P” value with glucosamine-6-phosphate [3] is less than 1e-05 s⁻¹. Also, the “self-cleavage kobs at 2500 uM GlcN6P” value with glucosamine-6-phosphate [5] is less than 1e-05 s⁻¹.
Take C16A U65C: in the data set with glucosamine-6-phosphate [1], the “self-cleavage kobs at 40 uM GlcN6P” value was less than 1e-05 s⁻¹. In addition, in the data set with glucosamine-6-phosphate [2], the “self-cleavage kobs at 640 uM GlcN6P” value is less than 1e-05 s⁻¹. The “self-cleavage kobs at 160 uM GlcN6P” value in the data set with glucosamine-6-phosphate [3] was less than 1e-05 s⁻¹.
For the variant G13A G62U C70U, in the data set with glucosamine-6-phosphate [1], the “self-cleavage kobs at 40 uM GlcN6P” value is less than 1e-05 s⁻¹. For the same variant, the “self-cleavage kobs at 10000 uM GlcN6P” value with glucosamine-6-phosphate [4] is less than 1e-05 s⁻¹.
Regarding C11U A48U G51U, the “self-cleavage kobs at 40 uM GlcN6P” value with glucosamine-6-phosphate [1] was less than 1e-05 s⁻¹.
The same measure, in the same setting: with A12C A33U C68U the figure was less than 1e-05 s⁻¹.
On to G13U C16A U47G, for which, in the data set with glucosamine-6-phosphate [1], the “self-cleavage kobs at 40 uM GlcN6P” value was less than 1e-05 s⁻¹.
Take C16U A52C: the “self-cleavage kobs at 40 uM GlcN6P” value in the data set with glucosamine-6-phosphate [1] is less than 1e-05 s⁻¹. Moreover, the “self-cleavage kobs at 160 uM GlcN6P” value with glucosamine-6-phosphate [3] was less than 1e-05 s⁻¹.
With A14U G38C U49C G59C, the “self-cleavage kobs at 40 uM GlcN6P” value with glucosamine-6-phosphate [1] was less than 1e-05 s⁻¹. The “self-cleavage kobs at 10000 uM GlcN6P” value with glucosamine-6-phosphate [4] was less than 1e-05 s⁻¹.
With C16A G35U G43C C68U, the “self-cleavage kobs at 40 uM GlcN6P” value with glucosamine-6-phosphate [1] was less than 1e-05 s⁻¹. The “self-cleavage kobs at 640 uM GlcN6P” value with glucosamine-6-phosphate [2] was less than 1e-05 s⁻¹. Also, the “self-cleavage kobs at 160 uM GlcN6P” value with glucosamine-6-phosphate [3] was less than 1e-05 s⁻¹.
